# Data from publication PMC4336329 (PLoS ONE, 2015).
# About 14,000 (4.5%) of roughly 310,000 compounds showed an effect of 50% or more. Effects have a minus sign here. The list shows a part of the results.
# Molecular target: human ether-à-go-go-related gene (hERG) potassium channel (human, UniProt Q12809)
# Assay: primary screen, population patch clamp on CHO cells stably expressing hERG
# 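Also: peak tail current of the secondary pulse compared with the same well before compound.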
# Sequence of human ether-à-go-go-related gene (hERG) potassium channel (Q12809 whole entry, looked up): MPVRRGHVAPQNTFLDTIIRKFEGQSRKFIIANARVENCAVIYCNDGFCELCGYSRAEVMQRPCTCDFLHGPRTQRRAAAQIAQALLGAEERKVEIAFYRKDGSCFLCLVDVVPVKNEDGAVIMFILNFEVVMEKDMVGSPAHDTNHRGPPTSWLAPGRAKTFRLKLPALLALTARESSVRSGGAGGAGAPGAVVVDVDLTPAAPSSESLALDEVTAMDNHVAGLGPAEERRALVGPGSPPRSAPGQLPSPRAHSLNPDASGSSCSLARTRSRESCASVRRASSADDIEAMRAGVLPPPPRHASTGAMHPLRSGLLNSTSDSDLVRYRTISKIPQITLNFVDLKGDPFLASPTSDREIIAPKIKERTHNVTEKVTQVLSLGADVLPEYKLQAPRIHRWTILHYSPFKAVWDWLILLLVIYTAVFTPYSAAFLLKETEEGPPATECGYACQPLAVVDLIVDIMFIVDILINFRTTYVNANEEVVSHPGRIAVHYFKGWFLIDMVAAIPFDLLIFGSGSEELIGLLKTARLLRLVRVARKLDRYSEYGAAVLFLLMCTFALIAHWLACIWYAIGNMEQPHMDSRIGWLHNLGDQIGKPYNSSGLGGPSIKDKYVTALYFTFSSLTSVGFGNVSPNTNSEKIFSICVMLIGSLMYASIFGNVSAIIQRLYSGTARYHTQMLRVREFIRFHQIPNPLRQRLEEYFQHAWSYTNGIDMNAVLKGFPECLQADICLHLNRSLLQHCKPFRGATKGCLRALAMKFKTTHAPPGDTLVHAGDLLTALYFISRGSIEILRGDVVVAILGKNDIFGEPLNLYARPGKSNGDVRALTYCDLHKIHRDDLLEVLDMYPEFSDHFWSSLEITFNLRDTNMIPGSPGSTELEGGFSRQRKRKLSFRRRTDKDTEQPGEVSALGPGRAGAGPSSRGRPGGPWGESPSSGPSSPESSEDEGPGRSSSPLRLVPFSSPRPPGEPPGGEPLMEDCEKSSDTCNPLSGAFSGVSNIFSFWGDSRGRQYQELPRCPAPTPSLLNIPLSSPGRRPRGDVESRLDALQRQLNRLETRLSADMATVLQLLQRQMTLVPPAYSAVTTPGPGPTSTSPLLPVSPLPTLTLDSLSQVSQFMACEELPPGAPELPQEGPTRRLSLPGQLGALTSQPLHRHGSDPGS
row,Compound,"hERG current change (%, negative = inhibition) at 10uM [%]"
1,COCCn1c(=O)[nH]c2cc(C(=O)OC)ccc2c1=O,7.96
2,Cc1cc2c(cc1C)C(c1cccc([N+](=O)[O-])c1)CC(=O)N2 (centres unmarked),5.01
3,CC1(C)CC(O)C(C)(C)N1O (centres unmarked),3.9
4,CC1CCN(C(=O)COC(=O)c2cccc(S(=O)(=O)N(C)c3ccccc3)c2)CC1,-49.8
5,Cc1ccc(NC(=O)CN2C(=O)c3ccccc3C2=O)c(C)c1,-3.51
6,Cc1ccccc1Cn1nnc(-c2ccc(F)cc2)n1,15
7,Cc1n[nH]c(C)c1S(=O)(=O)N1CCCC(C(=O)NCc2ccccc2Cl)C1 (centres unmarked),-4.85
8,CC(C)C(C(=O)NC1CCCC1)N(CC1CCCO1)C(=O)CNS(=O)(=O)c1ccc(F)cc1 (centres unmarked),-6.96
9,O=C1C(=O)N(CCN2CCOCC2)C(c2ccc(Cl)cc2)/C1=C(/O)c1ccc(S(=O)(=O)N2CCOCC2)cc1 (centres unmarked),23
10,CC1(C)Cc2c(c(N3CCCC3)nc3sc4c(N5CCN(CCO)CC5)ncnc4c23)CO1,-11.1
11,Cc1c(C(=O)Nc2c(N)nc(SCC(=O)NCC3CCCO3)[nH]c2=O)cccc1[N+](=O)[O-] (centres unmarked),15.9
12,CCNc1c(NS(=O)(=O)c2ccc([N+](=O)[O-])cc2)c(=O)oc2ccccc12,20.5
13,CCOc1cccc(-c2nnc3sc(C4CCCCC4)nn23)c1,-36.3
14,Cc1cccc(NC(=S)N(CCN(C)C)C(C)c2ccccn2)c1 (centres unmarked),-7.64
15,CCCN(N=Nc1cccc([N+](=O)[O-])c1)c1cccc([N+](=O)[O-])c1,3.14
16,CCOc1ncccc1C(=O)OCC(=O)NCCc1ccc(OC)cc1,-8.44
17,CS(=O)(=O)N(CCc1ccccc1)CC(=O)NCc1cccnc1,-5.61
18,COc1cccc(Oc2ccc3nnc(C(F)(F)F)n3n2)c1,5.03
19,Cc1ccc(S(=O)(=O)N2CCCC2)s1,-20.7

row,Compound,"hERG current change (%, negative = inhibition) at 10uM [%]"
1,CC(=O)Cc1nsc(NC(=O)C2Cc3ccccc3C(=O)O2)n1 (centres unmarked),21.7
2,O=C(NCc1ccccc1Cl)C1CCN(c2ncnc3c2nc2n3CCCCC2)CC1,-30.9
3,CN(Cc1nc(-c2ccccc2)no1)C1CCOCC1,5.53
4,Cn1c(CCNC(=O)c2ccccc2)nc2cc(NC(=O)c3ccco3)ccc21,-15.2
5,CC(=O)Nc1ccc(CN2CCCCCCC2)cc1,-4.11
6,O=C(/C=C/c1ccccc1[N+](=O)[O-])NNC(=O)c1ccncc1,-7.86
7,Nc1ncccc1C(=O)OCC(=O)NC1CCCCCC1,1.63
8,Cc1noc(C)c1COc1cccc(C(=O)NCCc2c[nH]c3ccccc23)c1,-6.56
9,Cc1ccc(/C=C2/SC(=S)N(CCC(=O)N3CCN(C)CC3)C2=O)cc1,8.77
10,Cc1ccc(C)c(S(=O)(=O)N2CCN(C(=O)CSC(=S)N3CCCC3)CC2)c1,-2.49
11,CCN(CC)S(=O)(=O)c1ccc(OC)c(NC(=O)Cc2cccs2)c1,-36.6
12,O=C(Nc1ccccc1Br)C(=O)N1CCCC1,3.44
13,COc1cc(/C=C/C(=O)O)cc(S(=O)(=O)Nc2ccccc2C(=O)NCCc2ccccc2)c1OC,21.7
14,O=C(Nc1ccc2c(c1)C(=O)OC2)Nc1cccc2ccccc12,13.1
15,Cc1onc(-c2c(F)cccc2Cl)c1C(=O)NNC(=O)C1CCN(Cc2ccccc2)CC1,-3.79
16,CCn1c(SCC(=O)Nc2nccs2)nnc1-c1cccnc1,6.01
17,Cc1ccccc1Cn1nnc(C(=O)Nc2ccc3c(c2)OCCO3)c1N,5.04
18,C=CCOC(=O)C1=C(C)NC(=O)NC1c1ccc(Cl)cc1 (centres unmarked),-7.32
19,O=C(COc1ccccc1Cl)Nc1ccc2oc(=O)ccc2c1,16.8

row,Compound,"hERG current change (%, negative = inhibition) at 10uM [%]"
1,Cc1c(OCC(=O)NCC(O)c2ccccc2)ccc2c3c(c(=O)oc12)CCCC3 (centres unmarked),-0.779
2,Cc1noc(N)c1C(=O)Nc1ccc(F)c(Cl)c1,-2.34
3,O=C1CN(C(=O)COC(=O)c2oc3ccccc3c2COc2ccccc2)c2ccccc2N1,-4.41
4,COc1ccc(CN2CCn3ncc(C(=O)Nc4ccc(Cl)cc4Cl)c3C2=O)cc1,-3.62
5,O=C(Oc1cccc([N+](=O)[O-])c1)c1cc(-c2ccccc2)nc2ccccc12,12
6,CC(Sc1nnc(C2CC2)n1C1CC1)C(=O)Nc1ccccc1C#N (centres unmarked),-10
7,COCCN(C(=O)CCCC(=O)Nc1ccccn1)C(C(=O)NC1CCCC1)c1ccc(C)cc1 (centres unmarked),-5.66
8,CCN(CC)S(=O)(=O)c1ccc(N2Cc3ccccc3C2=N)cc1,-40.5
9,CC1CCCC(N2CCN(C(=O)c3cccc(F)c3)CC2)C1.O=C(O)C(=O)O (centres unmarked),-6.93
10,COc1ccccc1/C=C(/C(=O)OCC(=O)Nc1ccc(N(C)C)cc1)c1ccccc1,-0.0196
11,Cc1cc(NC(=O)c2cc(-c3ccccc3)on2)no1,11.4
12,Cc1c(C(=O)N(C)C)sc2nc(-c3ccccn3)[nH]c(=O)c12,-2.71
13,O=C1CCC(c2ccccc2)(c2ccccc2)CC1,6.52
14,COC(=O)Cc1c(C)c2ccc(OCC(=O)N3CCCC3)c(C)c2oc1=O,-15.2
15,NS(=O)(=O)c1ccc(CCNC(c2ccccc2)c2ccccc2)cc1,-24.8
16,COc1cccc(Nc2nnc(SCC(=O)N(CC(C)C)CC(C)C)s2)c1,5.89
17,O=C(Cc1ccc(-c2ccccc2)cc1)Nc1ncccc1O,3.3
18,Cc1ccccc1NC(=O)c1cc(S(=O)(=O)N2CCOCC2)cn1C,-8.81
